One test has as its target T1, FLAG-UPF1 C126S (human) (UniProt Q92900).
T1 sequence: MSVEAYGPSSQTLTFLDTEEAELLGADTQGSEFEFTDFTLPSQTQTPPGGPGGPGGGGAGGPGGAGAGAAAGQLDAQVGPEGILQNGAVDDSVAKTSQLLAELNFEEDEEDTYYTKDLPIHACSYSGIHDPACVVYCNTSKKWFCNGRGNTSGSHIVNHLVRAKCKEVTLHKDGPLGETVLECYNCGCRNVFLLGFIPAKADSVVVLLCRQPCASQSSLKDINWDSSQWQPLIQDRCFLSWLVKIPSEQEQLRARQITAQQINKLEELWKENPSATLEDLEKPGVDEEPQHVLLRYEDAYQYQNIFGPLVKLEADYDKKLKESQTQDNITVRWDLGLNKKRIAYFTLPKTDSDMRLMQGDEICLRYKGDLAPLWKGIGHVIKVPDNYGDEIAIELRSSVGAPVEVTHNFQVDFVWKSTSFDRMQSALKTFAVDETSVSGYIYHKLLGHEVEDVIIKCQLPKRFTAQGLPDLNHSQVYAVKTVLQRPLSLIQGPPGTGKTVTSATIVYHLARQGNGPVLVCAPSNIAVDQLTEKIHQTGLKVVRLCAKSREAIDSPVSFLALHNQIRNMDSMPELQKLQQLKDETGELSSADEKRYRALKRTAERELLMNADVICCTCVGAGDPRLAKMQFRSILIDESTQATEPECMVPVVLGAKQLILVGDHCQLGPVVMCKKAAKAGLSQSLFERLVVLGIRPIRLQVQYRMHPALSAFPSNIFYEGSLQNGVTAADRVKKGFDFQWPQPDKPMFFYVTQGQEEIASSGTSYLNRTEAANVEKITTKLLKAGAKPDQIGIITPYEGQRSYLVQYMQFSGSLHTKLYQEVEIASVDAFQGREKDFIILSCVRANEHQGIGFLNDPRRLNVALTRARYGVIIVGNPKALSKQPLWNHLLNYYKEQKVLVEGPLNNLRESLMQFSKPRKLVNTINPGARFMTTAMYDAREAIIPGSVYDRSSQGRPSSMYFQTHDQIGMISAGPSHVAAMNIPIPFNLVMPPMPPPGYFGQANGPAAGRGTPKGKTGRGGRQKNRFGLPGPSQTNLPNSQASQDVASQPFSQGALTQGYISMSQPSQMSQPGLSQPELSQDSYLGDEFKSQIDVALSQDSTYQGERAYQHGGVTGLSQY
Kind of test: co-IP; anti-FLAG IP from HEK293T cells cotransfected with FLAG-UPF1 (wild-type or mutants) and T7-DHX34 (wild-type or ATPase mutants); RNase A in Figure 3C; T7-DHX34 by western blot.

For the next test, the target named is T2, UPF1 G495R/G497E (human) (UniProt Q92900).
T2 sequence: T1 sequence with S126C, G495R, G497E
The test is described as above.

Results on one molecule are retold here after PMC4534575, “The RNA Helicase DHX34 Activates NMD by Promoting a Transition from the Surveillance to the Decay-Inducing Complex” (Cell Reports, 2014).

Residue numbers refer to the chain shown, from its start. No constants are given. Whether binding was seen depends on the method and setting. Binding seen in cells or lysates may run through a third protein. Some entries that bind do so weakly or less than the wild type. For some assays here: Sequences can lack the tags named with a protein.

B1: T7-DHX34 (wild-type) (protein, UniProt Q14147 1-1143)
chain: MPPPRTREGRDRRDHHRAPSEEEALEKWDWNCPETRRLLEDAFFREEDYIRQGSEECQKFWTFFERLQRFQNLKTSRKEEKDPGQPKHSIPALADLPRTYDPRYRINLSVLGPATRGSQGLGRHLPAERVAEFRRALLHYLDFGQKQAFGRLAKLQRERAALPIAQYGNRILQTLKEHQVVVVAGDTGCGKSTQVPQYLLAAGFSHVACTQPRRIACISLAKRVGFESLSQYGSQVGYQIRFESTRSAATKIVFLTVGLLLRQIQREPSLPQYEVLIVDEVHERHLHNDFLLGVLQRLLPTRPDLKVILMSATINISLFSSYFSNAPVVQVPGRLFPITVVYQPQEAEPTTSKSEKLDPRPFLRVLESIDHKYPPEERGDLLVFLSGMAEISAVLEAAQTYASHTQRWVVLPLHSALSVADQDKVFDVAPPGVRKCILSTNIAETSVTIDGIRFVVDSGKVKEMSYDPQAKLQRLQEFWISQASAEQRKGRAGRTGPGVCFRLYAESDYDAFAPYPVPEIRRVALDSLVLQMKSMSVGDPRTFPFIEPPPPASLETAILYLRDQGALDSSEALTPIGSLLAQLPVDVVIGKMLILGSMFSLVEPVLTIAAALSVQSPFTRSAQSSPECAAARRPLESDQGDPFTLFNVFNAWVQVKSERSRNSRKWCRRRGIEEHRLYEMANLRRQFKELLEDHGLLAGAQAAQVGDSYSRLQQRRERRALHQLKRQHEEGAGRRRKVLRLQEEQDGGSSDEDRAGPAPPGASDGVDIQDVKFKLRHDLAQLQAAASSAQDLSREQLALLKLVLGRGLYPQLAVPDAFNSSRKDSDQIFHTQAKQGAVLHPTCVFAGSPEVLHAQELEASNCDGSRDDKDKMSSKHQLLSFVSLLETNKPYLVNCVRIPALQSLLLFSRSLDTNGDCSRLVADGWLELQLADSESAIRLLAASLRLRARWESALDRQLAHQAQQQLEEEEEDTPVSPKEVATLSKELLQFTASKIPYSLRRLTGLEVQNMYVGPQTIPATPHLPGLFGSSTLSPHPTKGGYAVTDFLTYNCLTNDTDLYSDCLRTFWTCPHCGLHAPLTPLERIAHENTCPQAPQDGPPGAEEAALETLQKTSVLQRPYHCEACGKDFLFTPTEVLRHRKQHV
As to B1, the binding entry with FLAG-UPF1 C126S (human) and with UPF1 G495R/G497E (human) was “binds” each time.
